Measurements reported in paper PMC6919601, “Identification of Plasmodium dipeptidyl aminopeptidase allosteric inhibitors by high throughput screening” (PLoS ONE, 2019).
Among all 110,000 compounds or so, about 230 (0.21%) showed an effect of 50% or more. This is one part of the list.

target: DPAP1 (Plasmodium falciparum, UniProt Q8IIJ9); test: primary screen, percent inhibition; read by cleavage of a fluorogenic dipeptide substrate; higher = more effect of the substance; set-up: species or system P. falciparum D10 trophozoite lysates; single well
Sequence (Q8IIJ9 whole entry, looked up): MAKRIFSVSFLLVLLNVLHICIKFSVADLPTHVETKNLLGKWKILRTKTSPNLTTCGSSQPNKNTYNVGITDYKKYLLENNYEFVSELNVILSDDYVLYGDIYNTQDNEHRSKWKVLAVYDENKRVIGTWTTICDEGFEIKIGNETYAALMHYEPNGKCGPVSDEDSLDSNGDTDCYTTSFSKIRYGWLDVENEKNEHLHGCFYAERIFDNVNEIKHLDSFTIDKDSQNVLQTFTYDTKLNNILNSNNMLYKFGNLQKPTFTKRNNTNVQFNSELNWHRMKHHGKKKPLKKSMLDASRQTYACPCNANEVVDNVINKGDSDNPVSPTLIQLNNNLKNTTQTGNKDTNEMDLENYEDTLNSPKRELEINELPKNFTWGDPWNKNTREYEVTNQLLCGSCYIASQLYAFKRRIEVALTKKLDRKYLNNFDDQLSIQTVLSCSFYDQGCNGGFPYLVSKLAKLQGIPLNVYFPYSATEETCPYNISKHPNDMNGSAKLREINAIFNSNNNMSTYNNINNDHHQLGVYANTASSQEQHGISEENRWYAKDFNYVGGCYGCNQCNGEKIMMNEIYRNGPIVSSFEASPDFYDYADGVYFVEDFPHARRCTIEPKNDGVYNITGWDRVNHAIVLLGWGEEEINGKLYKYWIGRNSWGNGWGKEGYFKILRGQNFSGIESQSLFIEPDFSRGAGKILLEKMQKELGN
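Further: 30 min substrate incubation versus DMSO and 10 µM JCP410 controls.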

| Structure (SMILES) | % Inhibition @ 10 uM [%] |
| --- | --- |
| Cc1ccccc1C(=O)Nc1cccc(-c2cn3ccsc3n2)c1 | 3.05 |
| CCOc1cc(CO)ccc1OCc1ccc(C(=O)O)cc1 | -1.43 |
| CCOC(=O)c1cc2c(C)nc3ccc(OC)cc3c2o1 | 1.08 |
| Cc1ccc2nc(NC(=O)CCNS(=O)(=O)c3ccc4nc(O)ccc4c3)sc2c1 | 3.51 |
| Cc1cc(Cl)ccc1OCCCC(=O)NC1=NCCS1 | -4.59 |
| O=C(N1CCCCC1)C(O)(c1ccccc1)c1ccccc1 | -0.687 |
| COc1cc(/C=c2\sc3n(c2=O)CCCN=3)cc(OC)c1O | -1.29 |
| Cc1nc2ccc(S(=O)(=O)N(C)CC(=O)NC3CCCc4ccccc43)cc2s1 (centres unmarked) | -0.522 |
| CCOC(=O)c1c(C)[nH]c(C)c1S(=O)(=O)N(C)CC(=O)N1CCn2c1nc1ccccc12 | 0.706 |
| CC1(C)CC2=Nc3nn(-c4ccccc4)c(O)c3C(c3ccco3)C2=C(O)C1 (centres unmarked) | -0.828 |
| Cc1cc(C(F)(F)F)c(C#N)c(SCC(=O)c2ccccc2)n1 | 1.4 |
| CCOC(=O)c1c(NC(=O)COc2ccc3ccccc3c2)sc2c1CCCC2 | 3.66 |
| CCOC(=O)C1CCCCN1CCCc1ccccc1 (centres unmarked) | -1.21 |
| O=C(COc1ccc(Cl)cc1)Nc1cccnc1 | -2.29 |
| CCOc1cc(CN2CCCC2)ccc1OC | -5.42 |
| CCOc1ccc(CNCc2c(C(=O)O)n(Cc3ccc(F)cc3)c3cc(C)ccc23)cc1 | -3.56 |
| CN(CCCNC(=O)c1cc(S(=O)(=O)N2CCCCC2)c[nH]1)Cc1ccccc1 | 5.43 |
| O=C(O)C1Sc2nc(O)sc2C2c3ccccc3OC(=O)C12 (centres unmarked) | 5.17 |
| CCCNC(=O)c1ccc2c(c1)C(=O)N(Cc1ccco1)C2=O | 4.01 |
| COc1cccc2c1Oc1ncccc1N(c1ccc(C(=O)NCc3ccc4c(c3)OCO4)s1)C2 | -0.836 |
| CCOc1ccccc1N(CC(=O)NC1CC2CCC1C2)S(=O)(=O)c1ccc(C)cc1 (centres unmarked) | -2.54 |
| COc1ccc(OC)c(-c2cc(C(=O)O)c3c(-c4ccc(Cl)cc4)[nH]nc3n2)c1 | 3 |
| COc1ccc(S(=O)(=O)Nc2ccc(S(=O)(=O)Nc3ccc(Cl)cc3)cc2)cc1C | -4.62 |
| N#Cc1cc2c(nc1S)CCCC2 | 32.9 |
| Cc1ccc(OCCOc2ccc(Oc3nc(N(C)C)nc(N(C)C)n3)nn2)cc1 | 0.147 |

| Structure (SMILES) | % Inhibition @ 10 uM [%] |
| --- | --- |
| CN1C(C(=O)NC2CCCCC2)=CC(c2cccs2)=NS1(=O)=O | 0.655 |
| CCOC(=O)C1CCCCN1Cc1cccc(C(F)(F)F)c1 (centres unmarked) | -0.192 |
| O=C1C2C3CCC(O3)C2C(=O)N1c1ccc2nc3ccccc3cc2c1 (centres unmarked) | -0.999 |
| CCOC(=O)C1CCCN(CC2CC=CCC2)C1 (centres unmarked) | -5.42 |
| C=Cn1ccnc1C(C(O)c1cc(OC)c(OC)c(OC)c1)N(C)C (centres unmarked) | -3.39 |
| CC(=O)c1cccc(NS(=O)(=O)c2ccc(Oc3ccccc3Cl)cc2)c1 | -3.87 |
| CCN(C(=O)c1ccccc1OC)c1nc(-c2ccc(Br)cc2)cs1 | 1.75 |
| COc1ccc2c(CNC3CCCC(C)C3C)c(C(=O)O)n(Cc3ccc(F)cc3)c2c1 (centres unmarked) | 8.58 |
| CC(C)/N=C1\SC(CC(=O)Nc2ccc(Br)cc2)C(=O)N1C(C)C (centres unmarked) | 3.86 |
| CC(=O)c1nn(-c2cccc(Br)c2)cc1C(=O)c1ccco1 | -1.89 |
| O=C(O)c1ccc(S(=O)(=O)c2ccc3c(c2)C(=O)N(c2ccccn2)C3=O)cc1 | -2.63 |
| COc1ccc(OC)c(C2C(C#N)=C(N)Oc3cc(C)n(CCN(C)C)c(=O)c32)c1 (centres unmarked) | -1.11 |
| Cc1ccc(S(=O)(=O)C(F)(F)F)cc1[N+](=O)[O-] | -0.833 |
| Cc1cc(C)c2nc(N3CCC(C(=O)NCc4ccc(OC(C)C)cc4)CC3)sc2c1 | 0.0882 |
| CCSc1cnn(-c2ccccc2)c(=O)c1SCC | 0.135 |
| CCN(CC)C1=N/C(=C\c2ccccc2)C(=O)N1c1ccc(C)cc1 | 2.22 |
| C#CCNc1nnc(C)c2nnn(Cc3ccccc3Cl)c12 | 6.34 |
| COc1ccc(C2NC(=O)NC(C)=C2C(=O)Nc2cccc(C)c2C)cc1 (centres unmarked) | -6.25 |
| Cc1ccc2c(c1)c1c(c(=O)n(Cc3ccccc3)c(=O)n1CC(=O)NCC1CCCO1)n2C (centres unmarked) | -3.36 |
| COc1ccccc1S(=O)(=O)Cc1ccc(C(=O)NCCCN2CCOCC2)o1 | 3.77 |
| C=CCOc1ccc(/C=C2\S/C(=N/c3ccc(C(=O)O)cc3)N(C)C2=O)cc1 | -3.39 |
| CCCn1c2ccccc2c2cnn(CC(=O)N3CCN(Cc4ccccc4)CC3)c(=O)c21 | 2.13 |
| CCCCCCCCCCP(=O)(O)c1ccccc1 | 0.467 |
| Cc1cc(OCc2nc3ccccc3s2)ccc1N | -0.279 |
| Cc1ccc(S(=O)(=O)N2CCN(C(=O)CSc3nnnn3-c3ccccc3)C2)cc1 | -1.69 |

| Structure (SMILES) | % Inhibition @ 10 uM [%] |
| --- | --- |
| O=C(Nc1cccc(F)c1)/C(=C\c1ccco1)NC(=O)c1ccsc1 | -0.366 |
| COCCn1c(=N)c(C(=O)OC)cc2c(=O)n3ccccc3nc21 | 0.279 |
| CCN(CC)S(=O)(=O)c1ccc(NC(=O)c2ccco2)cc1 | 2.45 |
| Cc1ccc(NC(=O)CSc2ccccn2)cc1 | 2.38 |
| CCOC(=O)c1cc(C(=O)OCC)c(O)nc1C | -5.96 |
| c1cc2c(cc1NC1C3CC4CC(C3)CC1C4)OCO2 (centres unmarked) | -1.96 |
| CCN1C(=O)/C(=C2/SC(C)=C(C)N2CC)S/C1=N\c1c(C)n[nH]c1C | 4.06 |
| CC(C)(C)N1C(=O)NC(=O)/C(=C/c2ccccc2Cl)C1=O | -0.712 |
| Cc1nc(O)nc(O)c1S(=O)(=O)N1CCC(C(=O)NCCc2ccccc2)CC1 | -2.56 |
| CCSc1nc(-c2cccc(OC)c2)nc2c1Cc1c(CO)cnc(C)c1O2 | 3.54 |
| COc1nc(C)nc(NC(=O)NS(=O)(=O)Nc2ccc([N+](=O)[O-])cc2)n1 | 1.42 |
| O=C1N/C(=C/c2cc(Br)cs2)C(=O)N1Cc1ccccc1F | -3.63 |
| CCc1ccc(OCC(=O)N(Cc2nc(-c3ccc(Cl)cc3)no2)C(C)C)cc1 | -5.91 |
| CCOC(=O)c1c(NC(=O)c2ccncc2)sc2c1CC(C)(C)OC2 | 0.484 |
| CC(=O)N1CCC2(CC1)OC(=O)C(C)=C2C(=O)NC(C)CCc1ccccc1 (centres unmarked) | -1.31 |
| Cc1ccc(C(=O)Nc2cccc(C(O)c3ccccc3)c2)cc1 (centres unmarked) | -0.891 |
| CCN(CC)CCNC(=O)C1=Cc2sc(C)c(C)c2CS1 | 19.4 |
| O=C1c2ccccc2C(=O)C1(CCO)c1ccccc1 | -1.8 |
| CCOc1cc(S(=O)(=O)NCCc2c(C)[nH]c3c(C)cccc23)ccc1F | 2.72 |
| COc1ccc(N(CC(=O)Nc2ccc3c(c2)OCO3)S(C)(=O)=O)cc1OC | -6.24 |
| CCc1nc2ccccc2n1CC(O)COc1ccccc1OC (centres unmarked) | 1.25 |
| CC(=O)c1ccc(NC(=O)c2ccc(C(C)(C)C)cc2)cc1 | 0.324 |
| COc1cccc(N2CCN(C3CC(=O)N(c4cccc(C)c4)C3=O)CC2)c1 (centres unmarked) | -8.02 |
| c1coc(CNCCc2c[nH]c3ccccc23)c1 | 0.673 |
| COc1ccccc1[C@@H](C)C[C@H](NC(=O)c1ccc(OC(F)(F)F)cc1)C(=O)NCC#N | -4.82 |

| Structure (SMILES) | % Inhibition @ 10 uM [%] |
| --- | --- |
| CCOC(=O)C1=C(CS(=O)(=O)c2ccc(F)c(Cl)c2)NC(=O)NC1c1ccccc1OCC (centres unmarked) | 12.8 |
| Cc1cc2n(n1)SC(NC(C)c1ccccc1)N2 (centres unmarked) | 2.65 |
| N#CCNC(=O)C1(NC(=O)c2ccc(-c3ccc(-c4ccno4)cc3)cc2)CCCCC1 | -1.41 |
| Cc1ccc(C(=O)Cn2c3ccccc3n3nc(CCC(=O)O)c(=O)nc23)cc1 | -0.865 |
| CCSc1nnc2c(=O)[nH]c(=O)[nH]c2n1 | -4.75 |
| CC(=O)Nc1ccc(/C=C2\SC(=O)N(CC(=O)O)C2=O)cc1 | -4.86 |
| O=C(NC1CCCCC1)C1CC(c2ccccc2F)=NO1 (centres unmarked) | 7.39 |
| CC(C)CN1C(=O)c2ccccc2C(C(=O)N2CCN(c3ccccn3)CC2)C1c1cccs1 (centres unmarked) | -0.539 |
| Cc1ccc(NC(=O)CN(c2ccccc2F)S(=O)(=O)c2ccccc2)cc1 | 3.66 |
| CN(Cc1ccccc1)c1nc2c(S(=O)(=O)c3ccccc3)nnn2c2ccc(Cl)cc12 | 3.26 |
| Cc1ccc(OCC(=O)N(Cc2nc(-c3ccc(Cl)cc3)no2)C(C)C)cc1 | -3.06 |
| CCN(CC)CCN(CC)Cc1cc(F)ccc1F | 4.32 |
| CCCCNC(=O)CNC(=S)N(Cc1ccccc1)Cc1ccccc1F | 4.47 |
| COc1ccc(OC)c(Nc2ccc3ccccc3n2)c1 | 1.84 |
| Cc1cc2ccccc2c(=O)n1CC(=O)NCC(=O)N1CCN(C)CC1 | -1.2 |
| Cn1cccc1Cc1nnc(SCC(=O)NCc2ccc3c(c2)OCO3)n1-c1ccccc1 | -1.3 |
| CCN(C(=O)c1cc2c(=O)n3cccc(C)c3nc2n1C)c1ccccc1 | 2.76 |
| COc1ccc(CSc2nc3ccccc3[nH]2)cc1 | -0.053 |
| COc1ccccc1OCC(=O)N(Cc1nc(-c2ccccc2)no1)C1CCCCC1 | 2.14 |
| CN1CCC(N(C)C2CCN(CCc3ccccc3)CC2)CC1 | -3.6 |
| Cc1ccsc1/C=C(/C#N)c1nc(C2CC2)cs1 | 7.49 |
| CN1CCN(C(=O)c2cccc(Br)c2)CC1 | -0.261 |
| C=CCN1C(=O)C(O)=C(C(=O)c2ccc(C)cc2)C1c1ccc(C)cc1 (centres unmarked) | 0.992 |
